Assay: soluble on expression in E. coli; label from the status in PepcDB or PDB records

## GNEEETNNYTPVDNQSNSTSEIILQERNSSLPRVWSKKTAQRVTTRASFTDATDFLGCSYAVENGTSIIGDFANAKYPVVNMKKLLERYPSYINPKELRTTETKALSYSDFDRLEKNKTFTKTVKSGFSLNLGPFKFGRQKTIKETFVHNTDDSEKVVHGELSIEVVNGMLNLQTAPSALRKIAADYLDELFVDALYNSSMVELMQSYGEFVLTGYYTGGRASALFYGVDTNSIQFDSKEKDMDVAINASYEWKNKKPTAPSDTIHSASGNLSIGTKRENSETITNKFSALSYSIKTLGGAYGYSISTPPYDITNYSIDLTPWLQSLNDPKTHTMIDLQDGGLYPISDFILEENFKQRYNDTHMDFQYQESLEEPYIEIIKMYIRKSNSGEKLYDIVPVLNTRQGDKLIFSNPDAASQSDEELKANSIPATFLTKSNAIKDEKSKYYQLKIKADPNKTINPIIQTTLSFQINNVDEKGMYKFKNANTNIWYIYNPTSMYCFAYYDDDYIPDAYGILDWVNGIPIKAVTMTTLYQRYKIYGL
  soluble on expression in E. coli: soluble

Source: the DeepSol protein solubility set
